# Results as given in PMC12136788.
# The list shows a part of the results.
# T1: UNK ZnF1-3 (human, UniProt Q9C0B0 31-174)
# T1 sequence: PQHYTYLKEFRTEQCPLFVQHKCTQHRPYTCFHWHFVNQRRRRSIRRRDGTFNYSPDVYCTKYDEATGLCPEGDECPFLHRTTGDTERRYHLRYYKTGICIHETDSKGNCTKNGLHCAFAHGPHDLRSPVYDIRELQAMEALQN
# B1: chr12:21919153:21919154:-_ENSG00000121361_ENST00000240662|hu_mus|FALSE|FALSE (ssRNA)
# RNA: GGGAGUUCUACAGUCCGACGAUCAUACAGGGGGCUACGCUUGUCAAUCACGUGGCAGAUGAUCAAUGGGGCCACUAGGAAGAUAUUAUUGCUCUCGAUGGGAUUAUCAACAGGAAUGUCCUGCUGAUGAAUAGGCACCACCUCCAACAGAGGAUUGAGCAUCA
# B2: chr3:176767854:176767855:-_ENSG00000177565_ENST00000430069|hu_hu|hu_hu_hu_mus_False|48_108 (ssRNA)
# RNA: GGGAGUUCUACAGUCCGACGAUCGACAUCCUUGUUGCUGGGCACGUCCUGCCCUCCUUCCCGUAUGCAGUGUCUAAGCACGAGCUGUGUAGAGCCACUCGUGCUGUUCUCACUGAGGUUCCAGAUUCUUGCCGUGGAGUCUCCCAACAGAGGAUUGAGCAUCA
# B3: 94532752_94532872_597_3pUTR_ENSG00000166025_ENST00000433060|human|control|control (ssRNA)
# RNA: GGGAGUUCUACAGUCCGACGAUCCAUCACCGUAUUGUCCACCUGGUGUUCUUGACCCUGCGGUUCUUGGCGUGCUGACUGGUAGACCAUUUGUGGGUCUUCUUGAGUGAGGUUUUCCGUGGAAGAAAAGUUGUUUGUAGGAUGCAACAGAGGAUUGAGCAUCA
# B4: 93635196_93635316_265_5pUTR_ENSMUSG00000063015_ENSMUST00000058550|mouse|control|control (ssRNA)
# RNA: GGGAGUUCUACAGUCCGACGAUCGGCCCGAGGCCGCCGCCGCCGGUCCCGCUCCUCCGACCGCCGCCGCUGGUGCCCGGGUGAGGAGGGGGCGCCCUCUCGCCAUAGGGCGGCGGGGGCCGGGGAGAGGCGCGGGGUGAGGCCCAACAGAGGAUUGAGCAUCA
# B5: chr16:94690422:94690423:+_ENSMUSG00000040785_ENSMUST00000117648|mus_hu|FALSE|FALSE (ssRNA)
# RNA: GGGAGUUCUACAGUCCGACGAUCUGUGACCAGAAUUCAUGGUUCUAUAUUUACCACUGUCUAAAAGUCACAAAACAAUAUCUAAUUUUUUCAUGGUUUCUAAUGCAGUUACAGUUUUGUUCUUAGGUCACAGUACAAGACUGCCAACAGAGGAUUGAGCAUCA
# B6: chr11:29608523:29608524:+_ENSMUSG00000020458_ENSMUST00000102843|mus_mus|FALSE|FALSE (ssRNA)
# RNA: GGGAGUUCUACAGUCCGACGAUCACUUUUGGAGAAUUCAUCUGAGACAUGUGCUUCAUCUUUAGGAUAUGUAUUCUUGAAAGAAAGGUCACAGGGCAAUUCUGAGCAAGGCAACGAAUUGGCCCCGCUCUGGACAUUAGCAAUCAACAGAGGAUUGAGCAUCA
# B7: chr11:113085134:113085135:+_ENSG00000149294_ENST00000316851|hu_hu|FALSE|FALSE (ssRNA)
# RNA: GGGAGUUCUACAGUCCGACGAUCGGUGAUGGAGGGAAUGGGGUCUCCGGAGGCUUCACAGGUAAGAGUGACCUGCUCCUCUAAUUCCAUGGCAGUCUGGUUCUCUACAUAUGUGAUUUUGGGUUUUGCAAAGACUUUGAGGUGCAACAGAGGAUUGAGCAUCA
# B8: chr20:52835626:52835627:+_ENSG00000101132_ENST00000441080|hu_hu|FALSE|FALSE (ssRNA)
# RNA: GGGAGUUCUACAGUCCGACGAUCAGCUUCAAGGUUUAUGUUGCUCCCGAAUUUUGCAUACAACUGAACUUUCAAAUCUGCUAACACUCGCUGAAUUGAUUCCACUCUGGAUUCUAAGGCGUCAAUUUCUUCUUGCAAAUUUUUCAACAGAGGAUUGAGCAUCA
# B9: chr8:41367971:41367972:+_ENSG00000147533_ENST00000520817|hu_mus|FALSE|FALSE (ssRNA)
# RNA: GGGAGUUCUACAGUCCGACGAUCGCAACAUACUGUAUUAUUUCUACCAAUUUUUUCUCCUAAGUUAUACUUGUAACAAAACUAGAGUUAGGUGCUUAGGACACUUGCUUCUUCCACACCGGGCAGAGCUGGGGCAGGUGGAGCCAACAGAGGAUUGAGCAUCA
# B10: chr18:25636641:25636642:-_ENSMUSG00000024268_ENSMUST00000025117|mus_hu|motif|central (ssRNA)
# RNA: GGGAGUUCUACAGUCCGACGAUCCAUUUACCAAAGAUAAAUAUCGUGCUUUCAUUAAAUAGUUUUCCUUGUUUUUUUCUCGGUCAUUACAAUUAAAAGUCCUACAAAAUAUGCAAAUUUAUUUACAGAAAAACAGAGCCGGCACAACAGAGGAUUGAGCAUCA
# B11: chr7:54825262:54825263:-_ENSG00000132432_ENST00000352861|hu_hu|hu_hu_hu_mus_False|8_88 (ssRNA)
# RNA: GGGAGUUCUACAGUCCGACGAUCCUGCCGGCUGGGCUCCACAAACUUUACCUGAUCAUCCAUGUUUGUUGGAUGGCGGAUUGAGAGCGUAGAGACACGUAGCUCAGGAGAGAACCGAGCCCAACGGCACCGGAACCUGGCAACCAACAGAGGAUUGAGCAUCA
# B12: chr10:75239141:75239142:-_ENSG00000107758_ENST00000394829|hu_hu|motif|central (ssRNA)
# RNA: GGGAGUUCUACAGUCCGACGAUCUACUUCUAUCAUGGUUUUCUCUCUCCGAAGGAUGGCAGCACCCUCAUUGAUAAUUCGGAGCGCAAUUUCUUCAUCUACUCGACCUUCUUUCACCAAGUGGUUCUUCAGAACAUCAACCCUCAACAGAGGAUUGAGCAUCA
# B13: chr4:25749455:25749456:-_ENSG00000091490_ENST00000264868|hu_hu|hu_hu_hu_mus_False|68_108 (ssRNA)
# RNA: GGGAGUUCUACAGUCCGACGAUCGCAAGCACUAGGAUAGAAAAAUCCACAGGGGGAAAAAAUGUAAACCAAUUUACAAUGUUAUCGCCUUCCCUGUGUGUGGAGUGUUUGUCUCAAGGCUCCUUCUAGCUGCUGGAUUUGGGACAACAGAGGAUUGAGCAUCA
# B14: chr10:61147818:61147819:+_ENSMUSG00000020088_ENSMUST00000020285|mus_mus|motif|central (ssRNA)
# RNA: GGGAGUUCUACAGUCCGACGAUCUAGUCUGUCAUCUUUCAGCAUGUGAAGAAGAGUGGUUUUGCCCGCAUUGUCCAAUCCGGAGAAUACAAGUUUUCCAGAUUUCUUGUAGAGUCCUAGGAACUGGAGCACACUGCUGAAGCCCAACAGAGGAUUGAGCAUCA
# B15: chr15:59387643:59387644:+_ENSG00000157450_ENST00000557998|hu_mus|motif|central (ssRNA)
# RNA: GGGAGUUCUACAGUCCGACGAUCAAGGGCGGUACUUAACUCAGAAUUCCAUAUUGUAAAUAUACAGCAGCCAUUUUGUCCGGAUUUAAUUAAGGAAUGUCUUAAUACACAAUAUCAUUUCCUAGAAAAUCUUUAUACAUUAAACAACAGAGGAUUGAGCAUCA
# B16: chr10:126501906:126501907:+_ENSMUSG00000006728_ENSMUST00000133115|mus_mus|FALSE|FALSE (ssRNA)
# RNA: GGGAGUUCUACAGUCCGACGAUCCUUCAGGUCCCGGUGAACAAUGCAGUUUGCAUGAAGAAAAUCCAGGCCGCUUAGAAACUGACGCAUUAGAUCCUUAAUGGUCUCAACCGGCAGGCCCGGUGGAGGUGCUUUGUCCAGGUACAACAGAGGAUUGAGCAUCA
# B17: chr4:115894766:115894767:+_ENSMUSG00000028698_ENSMUST00000030464|mus_hu|mus_mus_mus_hu_True|28_48 (ssRNA)
# RNA: GGGAGUUCUACAGUCCGACGAUCUUCCACACGGAAAUGUACUUCGGGUUUUCCAACGGCCAGUACCAGUCCGGCCAAACUACCCGAUGAGGACAAGCCCCCUCUCUUCUCUCCUCCACAACAAAAUGCCCCCGAACUUUCAAGCAACAGAGGAUUGAGCAUCA
# B18: chr4:138660994:138660995:-_ENSMUSG00000050608_ENSMUST00000143971|mus_mus|motif|central (ssRNA)
# RNA: GGGAGUUCUACAGUCCGACGAUCAAAGUCAUGCUGACAGUUGGAGUAGGCCAUUCCCAAUCCCACGCCAGAACCAAAGGCGGAUGGCCACAUUCUUCUCUUAAAGAAGGUGAGGGAGAAAACAAUUCCUAAUCCAAACCCAGUCAACAGAGGAUUGAGCAUCA
# B19: chr22:32879901:32879902:+_ENSG00000100225_ENST00000397426|hu_mus|hu_hu_hu_mus_False|58_78 (ssRNA)
# RNA: GGGAGUUCUACAGUCCGACGAUCCUCUUCCAUACUCAUGGCAUCCUGAAUUGACUCAGCUUCAAAAUUUUGACUAGGCCCUAACAUACUGUCAUCAGUCCAGGCAUCAAAUGGGGUGGCCUGUCCUUGGGAUGAAUCAGUCCCCAACAGAGGAUUGAGCAUCA
# B20: chr2:9570881:9570882:+_ENSG00000119203_ENST00000238112|hu_mus|hu_hu_hu_mus_False|58_58 (ssRNA)
# RNA: GGGAGUUCUACAGUCCGACGAUCACUUGUCUUCUGAAGGAACCAGGGCAGGGCUCCACAGUGAUCCAAAUGGAAAUGACUAAUUAACAGAAGGUCGAUCUCAGCUGGGUCGAUAAGGUCAAUGUAAGGAAGGGCAUCCAUUCCCAACAGAGGAUUGAGCAUCA
# B21: chr7:108212191:108212192:+_ENSG00000128590_ENST00000249356|hu_mus|motif|central (ssRNA)
# RNA: GGGAGUUCUACAGUCCGACGAUCGUUAUCAUUAAAAUGCAGAUUGCAAAGACGAAAACUGACUGUGGAGUAGCCAUUUCGGAUAACCUGUGCGCCCCGACGCAGCUUCUCCACAGCGCGGCGGCCCGGCUCCGGUUCCCUGACCAACAGAGGAUUGAGCAUCA
# B22: chr10:33190432:33190433:-_ENSG00000150093_ENST00000302278|hu_mus|hu_hu_hu_mus_True|28_98 (ssRNA)
# RNA: GGGAGUUCUACAGUCCGACGAUCUACAUUUUCCAAACCUGCACAUGAAUAAAACCCUGGCCACAGAGCCCCAAAACUACCCUACUGUGACUAAGAUGCUGCUGCUGUUGCAUUCAGGUUGCAAAAUCCGCCUGAGUAGGAUUCCAACAGAGGAUUGAGCAUCA
# Biological target: T1, UNK ZnF1-3
# Experiment: nsRBNS (natural sequence RNA bind-n-seq); RBNS binding buffer (assumed for nsRBNS): 25 mM Tris pH 7.5, 150 mM KCl, 3 mM MgCl2, 0.01% Triton X-100, 500 ug/ml BSA, 20 U/ml SUPERase-In, 4 C; UNK is unkempt and MSI1 is Musashi-1; names of the RNAs are library labels; protein concentration not given here; high values mean tight binding
row,Binder,binding signal
1,B1,1 enrichment R
2,B2,0.536 enrichment R
3,B3,0.702 enrichment R
4,B4,0.942 enrichment R
5,B5,0.309 enrichment R
6,B6,0.774 enrichment R
7,B7,0.9 enrichment R
8,B8,1.13 enrichment R
9,B9,1.03 enrichment R
10,B10,0.782 enrichment R
11,B11,1.13 enrichment R
12,B12,1.06 enrichment R
13,B13,1.14 enrichment R
14,B14,1 enrichment R
15,B15,1.18 enrichment R
16,B16,1.14 enrichment R
17,B17,1.03 enrichment R
18,B18,1.17 enrichment R
19,B19,1.4 enrichment R
20,B20,1.29 enrichment R
21,B21,0.719 enrichment R
22,B22,1.42 enrichment R
